Several values for one entry are separate records, joined by “and”; a condition that tells them apart may be missing. Equal values may be shown once. The campaign covered roughly 310,000 compounds. About 18,000 (5.8%) were called active. Inconclusive results, whose numbers are uncertain, are shown with a selection of clear calls. Calls follow the shape of the dose curve; as a rule, active = well fitted inhibition curve with a large enough effect; inconclusive = small, poorly fitted or top-dose-only effect, or another doubt; inactive = no such curve, though single readings can be large or run the other way. Potencies of inconclusive entries are left out as doubtful fits.
experiment: Primary qHTS for delayed death inhibitors of the malarial parasite plastid, 48 hour incubation; conditions: P. falciparum luciferase growth in erythrocytes; series mostly up to 28.7 µM; activity change, negative = inhibition: at the top concentration
Outline: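 Compounds are pin-transferred into medium, infected erythrocytes (2% hematocrit, 0.1% parasitemia final) are added, and plates sit one parasite generation at 37 C in 5% CO2. Detection reagent is then added and luminescence measured.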
% is scaled to controls: 0 for no effect and ±100 for the full control effect; potency is read from the fitted curve at half-maximal effect; tags tell the direction and shape of the fitted curve.

SMILES	Potency	activity change, negative = inhibition
CCCCCN1C2=NCCN2c2ccccc21	inconclusive [inhibitor, partial curve]	–
C=CCNC(=O)CCNS(=O)(=O)c1ccc(Br)cc1	–	inactive: 8.24%
COc1cc(/C=N/NC(=O)NC23CC4CC(CC(C4)C2)C3)ccc1O	inconclusive [inhibitor, single point]	–
O=C(CSc1nc2ccccc2c(=O)n1-c1ccc(F)c(Cl)c1)Nc1cccc(S(=O)(=O)N2CCOCC2)c1	inconclusive [inhibitor, partial curve]	–
O=c1c2ccccc2nnn1COc1cccc(Cl)c1	–	inactive: 97.4%
CC(=O)Nc1ccc(C(=O)Nc2ccc3c(c2)OCO3)cc1	–	inactive: 31.3%
Cn1c(C(=O)NCC2CCCO2)cc2oc3ccccc3c21 (configuration not stated)	–	inactive: 87%
CCN(c1ccccc1)S(=O)(=O)c1ccc(OC)c(NC(=O)CCc2nc3ccccc3c(=O)[nH]2)c1	inconclusive [inhibitor, single point]	–
CSc1ccc(C2c3[nH]c4ccccc4c3CCN2C(=O)c2cc(C)n(C)n2)cc1 (configuration not stated)	inconclusive [inhibitor, partial curve]	–
OC(CNCc1ccccc1)c1ccccc1 (configuration not stated)	active: 9.28 µM	–
CCN1C/C(=C/c2ccc(OC)c(O)c2)C(=O)/C(=C/c2ccc(OC)c(O)c2)C1	active: 2.62 µM	–
CCN1CCN(Cc2ccc(NC(=O)c3ccc(C)c(NC(=O)C(=O)c4c[nH]c5ccccc45)c3)cc2C(F)(F)F)CC1	active: 415 nM and active: 370 nM	–
CCOC(=O)CCSc1nc(C)cc(C(F)(F)F)c1C#N	inconclusive [inhibitor, single point]	–
COc1ccc(CC(=O)Nc2ccc(/C(C)=N/NC(=O)c3ccc(OC)cc3OC)cc2)cc1	–	inactive: -10.9%
NC(=O)c1cc([N+](=O)[O-])ccc1NCc1ccc(C(=O)O)cc1	–	inactive: -3.43%
Cc1ccccc1NC(=O)CSc1nnc2ccc(-c3cccnc3)nn12	inconclusive [inhibitor, single point]	–
CCOC(=O)N1CCC(=NNc2ccc(S(=O)(=O)N3CCOCC3)cc2[N+](=O)[O-])CC1	inconclusive [inhibitor, single point]	–
Cc1cc(C)nc(N/N=C/C2=C(O)CC(c3ccc(F)cc3)CC2=O)n1 (configuration not stated)	inconclusive [inhibitor, partial curve]	–
CCc1ccc(CN(C)C(=O)CCc2nc3ccccc3n(-c3ccc(OC)cc3)c2=O)cc1	inconclusive [inhibitor, partial curve]	–
Cc1cccc(NC(=O)CN(CCc2ccccc2)S(C)(=O)=O)c1	–	inactive: 2.42%
c1ccc(CN2CCN(c3nc(-c4ccccc4)nc4ccccc34)CC2)cc1	active: 3.29 µM	–
COc1cc(-c2nc3c[n+](CC(=O)c4ccccc4)ccc3n2C)cc(OC)c1OC	active: 7.38 µM	–
Cc1cccc(C)c1NC(=O)C(c1ccccc1)N1CC(=O)Nc2ccccc21 (configuration not stated)	inconclusive [inhibitor, single point]	–

SMILES	Potency	activity change, negative = inhibition
COc1cc(/C=N/NC(=O)c2cccnc2)ccc1OS(=O)(=O)c1cc(C)ccc1C	inconclusive [inhibitor, single point]	–
Cc1ccccc1C(=O)Nn1cnc2ccccc2c1=O	–	inactive: 225%
O=C(CSc1nc2ccccc2c(=O)n1CCCO)NC1CC1	–	inactive: 15.6%
COc1cc(NC(=O)Nc2cccc(Cl)c2)c(OC)cc1NC(=O)CN1CCCCC1	inconclusive [inhibitor, single point]	–
O=C(Nc1ccccc1)c1cc2ccccc2c(=O)s1	–	inactive: 31.9%
CC(OC(=O)c1ccc([N+](=O)[O-])o1)C(=O)NC1CCCCC1C (configuration not stated)	inconclusive [inhibitor, partial curve]	–
COc1ccc(N2CCN(C(=O)CSc3nnc(-c4cc5ccccc5cc4O)n3C)CC2)cc1	inconclusive [inhibitor, single point]	–
CCC(=O)O[C@@H]1[C@H](C)O[C@H](O[C@H]2[C@@H](N(C)C)[C@H](O)[C@@H](O[C@@H]3[C@@H](CC=O)C[C@@H](C)[C@@H](O)/C=C\C=C/C[C@@H](C)OC(=O)C[C@@H](OC(=O)CC)[C@H]3OC)O[C@H]2C)C[C@]1(C)O	inconclusive [inhibitor, single point]	–
O=C1CN(C(=O)c2c(F)cccc2F)C(c2ccccc2)c2cc(Br)ccc2N1 (configuration not stated)	inconclusive [inhibitor, partial curve, poor fit]	–
CC(C)(C)c1cc(C(=O)NCCN2CCCC2)cc(C(C)(C)C)c1	inconclusive [inhibitor, single point]	–
O=S(=O)(CCN1CCN(C(c2ccccc2)c2ccccc2)CC1)C(F)(F)F	inconclusive [inhibitor, single point]	–
CCn1c(C)nc2cc(C(=O)N=Nc3c(O)[nH]c4ccccc34)ccc21	–	inactive: 13%
CN(C)S(=O)(=O)c1ccc(N2CCCC2)c(C(=O)Nc2nc(-c3ccc(F)c(F)c3)cs2)c1	inconclusive [inhibitor, single point]	–
CCC(=O)N1CCN(c2ccc(NC(=O)COc3ccc(CC)cc3)cc2)CC1	inconclusive [inhibitor, partial curve, poor fit]	–
CCCn1c(=O)c2ccccc2n2c(SCCOc3ccccc3F)nnc12	inconclusive [inhibitor, single point]	–
CN(C)c1ccc(C(C(=O)NCC2CCCO2)N(Cc2ccccc2)C(=O)c2snc(C(N)=O)c2N)cc1 (configuration not stated)	inconclusive [inhibitor, single point]	–
Cc1cc2c(cc1S(=O)(=O)CCC(=O)N(C)C1CCCCC1)OCC(=O)N2	–	inactive: -11.4%
Cc1ccccc1NC(=O)Cc1nnc(SCC(=O)NC2CCCCC2)n1C	–	inactive: -1.26%
O=C(N/N=C\C=C\c1ccc2c(c1)OCO2)c1ccc(F)cc1	inconclusive [inhibitor, single point]	–
Cc1cc(C)cc(C(=O)OCC(=O)Nc2ncccn2)c1	–	inactive: 4.42%
Cn1c(N2CCCC2)nc2c1c(=O)n(Cc1cccc(F)c1)c(=O)n2C	inconclusive [inhibitor, partial curve, poor fit]	–
Cc1ccc(CSCCNS(C)(=O)=O)cc1	–	inactive: 20%
CCCCN(CC)CCNC(=O)c1cc2c(C)nc3ccccc3c2o1	inconclusive [inhibitor, single point]	–

SMILES	Potency	activity change, negative = inhibition
CCOCCN1CCN(c2nnc3n2-c2ccc(Cl)cc2C(c2ccccc2Cl)=NC3)CC1	inconclusive [inhibitor, single point]	–
COCCn1c(-c2ccc(F)cc2)nc2cccnc21	–	inactive: -4.99%
CCc1cc2c(=O)n3c(nc2s1)-c1[nH]c2ccc(OC)cc2c1CC3	–	inactive: 62.4%
C/C(Cn1nnc([N+](=O)[O-])n1)=N\NC(=O)c1ccccc1	inconclusive [inhibitor, single point]	–
CCOCCCN(C(=O)c1snc(C(N)=O)c1N)C(C(=O)NC1CCCC1)c1ccc(F)cc1 (configuration not stated)	inconclusive [inhibitor, partial curve, poor fit]	–
O=C(N/N=C/C(Br)=C\c1ccccc1)c1cccs1	inconclusive [inhibitor, full curve]	–
CCCNC(=O)OC[C@H]1O[C@H](CCO/N=C/C[C@@H]2C=C[C@H](OC(C)=O)[C@@H](COC(C)=O)O2)C=C[C@@H]1Oc1ccc(OC)cc1	inconclusive [inhibitor, single point]	–
COc1ccc(NC(=O)CSCC(=O)N(C)CC(=O)Nc2ccc(Cl)c(C(F)(F)F)c2)cc1	inconclusive [inhibitor, single point]	–
CCn1cc(/C=C/C(=O)Nc2c(C)nn(Cc3ccccc3)c2C)cn1	inconclusive [inhibitor, single point]	–
COc1cc2c(cc1OC)[C@@H]1O[C@](CCCCN3C(=O)c4ccccc4C3=O)(C2)Oc2cc(C)n(-c3ccccc3)c(=O)c21	active: 1.07 µM	–
COc1ccc(C2=Nn3c(nnc3C(F)(F)F)SC2)cc1	–	inactive: -12.1%
COc1ccc(N(CC(=O)Nc2ccc(C)cc2C)S(=O)(=O)c2c(C)n[nH]c2C)cc1	inconclusive [inhibitor, single point]	–
COc1ccccc1C(=O)Nc1sc2c(c1C#N)CCC2	–	inactive: 137%
COc1ccccc1OCCCCn1c(C(C)O)nc2ccccc21 (configuration not stated)	inconclusive [inhibitor, partial curve]	–
COc1cc2c(cc1OC)C1O[C@](CCCCN3C(=O)c4ccccc4C3=O)(C2)Oc2cc(C)n(Cc3ccccc3)c(=O)c21	inconclusive [inhibitor, partial curve]	–
Cc1ccc(CSC(Nc2ccc(F)cc2)=C(C#N)C#N)cc1	inconclusive [inhibitor, single point]	–
Cn1c(NN)nc2c1c(=O)n(Cc1ccccc1)c(=O)n2C	active: 11.7 µM	–
Cc1ccc2sc(N(CCCN(C)C)C(=O)c3ccc(S(=O)(=O)N(C)C)cc3)nc2c1C	inconclusive [inhibitor, partial curve, poor fit]	–
Cn1c(-c2cccs2)[n+](C)c2ccccc21	active: 1.04 µM	–
CCCOC(=O)C1=C(C)OC23OC(N)=C(C#N)C12C(=O)c1ccccc13 (configuration not stated)	inconclusive [inhibitor, single point]	–
Cc1cc2nc(CS)[nH]c2cc1C	inconclusive [inhibitor, partial curve]	–
